The whole screen tested about 370,000 compounds, of which about 150 (0.041%) were called active. This list was built around the results that the source calls inconclusive (neither active nor inactive); the mix of calls is not that of the screen. Calls come from the whole dose curve; as a rule, active = well fitted inhibition curve with a large enough effect; inconclusive = small, poorly fitted or top-dose-only effect; inactive = flat fitted curve, though single readings scatter. Potencies of inconclusive entries are left out as doubtful fits.
molecular target: Beta-lactamase (Escherichia coli (strain K12)) (UniProt P00811); assay: qHTS Inhibitors of AmpC Beta-Lactamase (assay with detergent); details: AmpC hydrolysis of nitrocefin, absorbance 480 nm, 0.01% Triton; activity change, negative = inhibition: at 114 µM (top of the series); note: nearly all actives have a fitted effect of over 25% in size;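 for activity change, negative = inhibition: 0% = no-compound wells and -100% = no-enzyme wells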
Sequence of UniProt P00811 (P00811 whole entry, looked up): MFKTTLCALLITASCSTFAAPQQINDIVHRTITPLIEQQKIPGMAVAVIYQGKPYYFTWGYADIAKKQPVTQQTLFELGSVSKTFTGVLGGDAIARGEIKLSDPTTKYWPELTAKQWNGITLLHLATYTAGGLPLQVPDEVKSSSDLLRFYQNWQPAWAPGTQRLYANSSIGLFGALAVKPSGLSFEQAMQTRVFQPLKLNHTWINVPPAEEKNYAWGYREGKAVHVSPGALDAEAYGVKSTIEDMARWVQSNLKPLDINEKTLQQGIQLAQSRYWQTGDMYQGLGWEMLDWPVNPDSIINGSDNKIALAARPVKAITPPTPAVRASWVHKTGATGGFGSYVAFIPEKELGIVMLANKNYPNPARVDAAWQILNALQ
How it was run: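 AmpC (5.3 nM in the dispensed reagent) in 20 mM phosphate pH 7.0 with 0.01% (detergent screen) or 0.0001% Triton X-100 was preincubated with compounds for 15 min at room temperature. Nitrocefin was then added from an 800 uM solution, and hydrolysis was followed at 480 nm.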
Potency is the fitted concentration of half-maximal effect; tags give direction and shape of the fitted curve.

Row | SMILES | Potency | activity change, negative = inhibition
1 | CCn1c(SCC(=O)N2CCN(c3ccccc3)CC2)nnc1-c1ccncc1 | inconclusive [inhibitor, partial curve] | –
2 | COc1ccc(Nc2ncnc3scc(-c4ccc(OC)cc4)c23)cc1 | – | inactive: -14.5%
3 | CC(=O)Nc1ccc(S(=O)(=O)NCc2csc(-c3cccnc3)n2)cc1 | inconclusive [inhibitor, full curve] | –
4 | Cc1cc(N2C(=O)NC(=O)CC2C)c(C)cc1C(C)C (configuration not stated) | inconclusive [inhibitor, full curve, poor fit] | –
5 | COc1ccc(NC(=O)CN(c2ccc(OC)cc2)S(=O)(=O)c2ccc(OC)c(OC)c2)cc1 | inconclusive [inhibitor, full curve] | –
6 | O=C(NC(=S)Nc1ccc2c(c1)OCCO2)c1ccccc1F | – | inactive: -10.3%
7 | COc1cc(Br)c(C2CC(=O)Nc3cc(OC)c(OC)cc32)cc1OC (configuration not stated) | inconclusive [inhibitor, partial curve] | –
8 | CC(C)Cn1c(N)c(C(=O)COC(=O)/C=C/c2cccs2)c(=O)n(C)c1=O | – | inactive: -3.71%
9 | O=C1CSC(c2c(F)cccc2Cl)N1c1cccc(F)c1 (configuration not stated) | – | inactive: -12.6%
10 | N#CC1=C(N)Oc2cc(N)ccc2C1c1ccc(F)cc1F (configuration not stated) | inconclusive [inhibitor, full curve, poor fit] | –
11 | N#C/C(C(=O)N1CCCCC1)=C1/N=C(N)c2ccccc21 | inconclusive [inhibitor, full curve, poor fit] | –
12 | CCOc1ccccc1NC(=O)CSc1nc2c(oc3ccccc32)c(=O)n1C(C)C | – | inactive: 20.4%
13 | Cc1ccccc1C(=O)Nc1ccccc1 | – | inactive: -0.08%
14 | O=C(N/N=C/c1cccs1)c1cc(-c2ccncc2)nc2ccccc12 | inconclusive [inhibitor, partial curve, poor fit] | –
15 | OCCN1CCN(C(=S)Nc2ccccc2)CC1 | inconclusive [inhibitor, full curve, poor fit] | –
16 | CC(OC(=O)c1cc(O)c2ccccc2c1O)C(=O)Nc1ccc(C(N)=O)cc1 (configuration not stated) | inconclusive [inhibitor, full curve, poor fit] | –
17 | COC(=O)c1[nH]c2ccc(C)cc2c1NC(=O)CN1CCN(c2ccccc2)CC1 | inconclusive [inhibitor, full curve, poor fit] | –
18 | COc1ccccc1CCC(=O)OCC(=O)Nc1cc(C)nn1-c1ccccc1 | inconclusive [inhibitor, full curve, poor fit] | –
19 | N/C(=N\OC(=O)Cc1cccs1)c1cccc([N+](=O)[O-])c1 | inconclusive [inhibitor, full curve, poor fit] | –
20 | O=C(O)c1ccc(N=NN2CCCC2)cc1 | – | inactive: 1.56%
21 | COc1ccccc1NC(=O)c1cc(S(=O)(=O)NCc2ccccc2)ccc1F | – | inactive: -8.87%
22 | COc1ccc(-c2cccc(NS(=O)(=O)c3ccccc3[N+](=O)[O-])c2)nn1 | inconclusive [inhibitor, full curve, poor fit] | –
23 | CCN1C(=NCCc2ccc([N+](=O)[O-])cc2)N[C@@H](c2ccccc2)[C@H](C(=O)OC)[C@H]1C | inconclusive [inhibitor, partial curve, poor fit] | –

Row | SMILES | Potency | activity change, negative = inhibition
24 | COc1cccc(CNC(=O)c2sc3nc4n(c(=O)c3c2C)CCC4)c1 | – | inactive: 19.3%
25 | COC(=O)c1cccc(C(=O)Oc2cccc(Br)c2)n1 | – | inactive: 1.52%
26 | Cc1oc2c(c1C(=O)Nc1ccccc1Br)C1=NCCN1C=N2 | – | inactive: 18.9%
27 | COc1ccc(N/C=C2/CCCCC2=O)cc1 | – | inactive: -7.63%
28 | Cc1c(C(=O)Nc2cccc(F)c2)oc2c1-c1nn(Cc3c(F)cccc3Cl)cc1CC2 | – | inactive: 22.8%
29 | CCOC(=O)c1[nH]c2c(c1-c1ccccc1)C(=O)CC(c1ccc(Cl)cc1)C2 (configuration not stated) | inconclusive [inhibitor, full curve, poor fit] | –
30 | COc1ccc(OCc2cc(C(=O)N(C)Cc3nccn3C)no2)c2ccccc12 | inconclusive [inhibitor, single point] | –
31 | Cc1ccc(OCC(=O)N(C)CC(=O)Nc2ccccc2Cl)c([N+](=O)[O-])n1 | inconclusive [inhibitor, partial curve, poor fit] | –
32 | CC(C)(C)n1nc2c(c1NC(=O)Cc1cccc3ccccc13)CS(=O)(=O)C2 | inconclusive [inhibitor, full curve, poor fit] | –
33 | O=C(CC1(C(F)(F)F)OCCO1)Nc1ccc2c(c1)OCO2 | inconclusive [inhibitor, full curve, poor fit] | –
34 | COc1cc(C(CC(=O)Nc2ccc(Br)cn2)N2Cc3ccccc3C2=O)cc(OC)c1OC (configuration not stated) | – | inactive: 16.5%
35 | O=C(CN1C(=O)c2ccccc2S1(=O)=O)Nc1ncccn1 | inconclusive [inhibitor, partial curve, poor fit] | –
36 | O=C(Cn1cnc2c(cnn2-c2ccccc2Cl)c1=O)N1CCc2ccccc21 | inconclusive [inhibitor, full curve, poor fit] | –
37 | Cn1nnnc1SCC(=O)c1c(N)n(C)c(=O)n(C)c1=O | inconclusive [inhibitor, partial curve, poor fit] | –
38 | O=C(CCSc1ccccc1)NCCN1CCOCC1 | – | inactive: -13.1%
39 | CCOC(=O)CC(=O)CSc1nc2c(cc1C#N)CCCCC2 | – | inactive: -15.5%
40 | S=c1[nH]nc(Cc2n[nH]c(=S)n2-c2ccccc2)n1-c1ccccc1 | inconclusive [inhibitor, single point] | –
41 | COc1ccc(C2=NCC(CSc3nnc(-c4ccc5c(c4)OCO5)o3)S2)cc1 (configuration not stated) | inconclusive [inhibitor, partial curve, poor fit] | –
42 | CCOc1ncccc1C(=O)OCC(=O)NCCc1ccc(OC)cc1 | inconclusive [inhibitor, full curve, poor fit] | –
43 | CC1CCN(Cc2c(C(=O)N/N=C/c3cccc(Cl)c3)nnn2-c2nonc2N)CC1 | inconclusive [inhibitor, single point] | –
44 | CCOC(=O)C(C)(C)Sc1nc2c(cnn2-c2ccc(C)cc2)c(=O)[nH]1 | inconclusive [inhibitor, single point] | –
45 | COc1ccc(-n2c(Cc3cccn3C)nnc2SCC(=O)NCc2ccc(F)cc2)cc1 | inconclusive [inhibitor, partial curve, poor fit] | –
46 | CC(=O)Nc1ccc(NC(=O)c2cc(-c3ccc(C)c(C)c3O)n[nH]2)cc1 | – | inactive: -7.82%

Row | SMILES | Potency | activity change, negative = inhibition
47 | CN(Cc1cnccn1)Cc1nc(Cc2ccccc2Cl)no1 | – | inactive: -2.18%
48 | COc1cc(NC(=O)c2ccc(Cl)cc2)c2ncccc2c1 | inconclusive [inhibitor, single point] | –
49 | Cc1ccc(NC(=O)NCc2ccccn2)cc1 | – | inactive: 1.68%
50 | O=C(NC1=NCCS1)NC12CC3CC(CC(C3)C1)C2 | – | inactive: -20.2%
51 | CCOc1ccccc1C(=O)Nc1ccc2c(c1)C(=O)NC2=O | inconclusive [inhibitor, partial curve, poor fit] | –
52 | CC(C)N(CCNC(=O)c1ccc(OCC2CCCO2)cc1)C(C)C (configuration not stated) | – | inactive: 0.651%
53 | Cc1ccc(S(=O)(=O)N2[C@@H](c3cccc(Cl)c3)C(C(=O)O)=CC[C@H]2c2ccc(Cl)c(Cl)c2)cc1 | inconclusive [inhibitor, partial curve, poor fit] | –
54 | O=C(NC(Cc1ccccc1)C(=O)NCc1ccccn1)c1ccco1 (configuration not stated) | inconclusive [inhibitor, partial curve, poor fit] | –
55 | Cc1sc(C(C2C(=O)CC(C)(C)CC2=O)C2C(=O)CC(C)(C)CC2=O)cc1[N+](=O)[O-] | inconclusive [inhibitor, partial curve] | –
56 | CCOC(=O)c1cccc(NC(=O)Cn2c(CC(=O)N3CCCC3)nc3ccccc32)c1 | inconclusive [inhibitor, full curve, poor fit] | –
57 | CC(C)OC(=O)C(C#N)c1nc2ccccc2nc1N1CCN(Cc2ccc3c(c2)OCO3)CC1 (configuration not stated) | inconclusive [inhibitor, full curve, poor fit] | –
58 | COc1ccc(NC(=S)N(CCc2c(C)[nH]c3ccc(C)cc23)Cc2cccnc2)cc1 | inconclusive [inhibitor, full curve, poor fit] | –
59 | O=C(NCCN1CCOCC1)c1ccccc1N1C(=O)[C@@H]2Cc3c([nH]c4ccccc34)C(c3ccc(F)cc3)N2C1=O (some centres not stated) | inconclusive [inhibitor, partial curve, poor fit] | –
60 | CCOc1cc(/C=N/NC(=O)CN2CCCCC2)ccc1OCc1ccc(Cl)cc1 | inconclusive [inhibitor, full curve, poor fit] | –
61 | O=C1NCCN1C(=O)c1cccc(Cl)c1 | inconclusive [inhibitor, full curve, poor fit] | –
62 | Cc1c(NS(=O)(=O)c2ccccc2)cc(Cl)c(O)c1C | inconclusive [inhibitor, partial curve] | –
63 | Cc1nn(CC(=O)NCc2cccc(Br)c2)c(=O)c2c1sc1ccccc12 | – | inactive: 19.7%
64 | COc1cc(-c2cc(C(=O)NCc3ccc(S(N)(=O)=O)cc3)c3ccccc3n2)cc(OC)c1OC | inconclusive [inhibitor, partial curve] | –
65 | CC(O)CNC(=S)Nc1ccccc1 (configuration not stated) | inconclusive [inhibitor, full curve, poor fit] | –
66 | O=C(CSc1nc2ccc([N+](=O)[O-])cc2[nH]1)c1ccc2ccccc2c1 | – | inactive: -12.7%
67 | O=C(CSc1nnc(-c2cccnc2)s1)Nc1ccc(C(=O)O)cc1 | inconclusive [inhibitor, single point] | –

Source: PubChem BioAssay AID485294 (National Center for Advancing Translational Sciences (NCATS), 2010)
